From PubChem BioAssay AID360 (National Center for Advancing Translational Sciences (NCATS), 2006)
Hit rate of the full screen: of about 48,000 compounds, about 550 (1.1%) were called active. Another 4% or so got no clear call; they are omitted. Rule as the data show it: active = potency below about 15 µM; inconclusive = mostly about 16 µM to 33 µM; inactive = weaker than that. This is one part of the list.

Target: Lysosomal acid glucosylceramidase (Homo sapiens) (UniProt P04062)
Test: Glucocerebrosidase;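 also: the screen sought inhibitors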
Conditions: purified enzyme, resorufin glucoside fluorescence (screen aimed at inhibitors), 20 min
How it was run: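 Normal human glucocerebrosidase (0.2 nM final) was assayed with resorufin β-D-glucopyranoside (30 uM final) in 50mM citric acid/KH2PO4, 10mM sodium taurocholate, 0.01% tween-20, pH 5.9. Compounds were titrated; fluorescence (Ex 548, Em 600) read after 20 min at RT.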
Potency is read from the fitted curve at half-maximal effect.

Sequence of UniProt P04062 (P04062 whole entry, looked up): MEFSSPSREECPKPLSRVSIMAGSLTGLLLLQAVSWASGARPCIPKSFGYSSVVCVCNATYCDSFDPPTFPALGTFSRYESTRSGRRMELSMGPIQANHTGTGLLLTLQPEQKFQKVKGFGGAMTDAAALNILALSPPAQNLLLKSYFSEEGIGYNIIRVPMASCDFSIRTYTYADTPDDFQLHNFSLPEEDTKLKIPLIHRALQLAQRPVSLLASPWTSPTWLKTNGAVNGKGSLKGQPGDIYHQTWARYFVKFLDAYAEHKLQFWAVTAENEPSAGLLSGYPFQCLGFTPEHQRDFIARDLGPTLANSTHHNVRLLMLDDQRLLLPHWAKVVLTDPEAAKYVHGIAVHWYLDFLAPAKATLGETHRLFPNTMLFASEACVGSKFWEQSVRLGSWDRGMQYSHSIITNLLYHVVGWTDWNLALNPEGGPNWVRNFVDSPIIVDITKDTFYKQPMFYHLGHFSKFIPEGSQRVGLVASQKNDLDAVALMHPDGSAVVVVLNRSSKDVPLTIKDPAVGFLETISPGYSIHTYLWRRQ

Potency, inactive:
N#Cc1ccccc1OCCN1C(=O)c2ccccc2C1=O > 76.9 µM
O=C(NO)c1ccc(OC(F)F)cc1 > 76.9 µM
CCOC(=O)C1=C(C)N=C(/N=C/N(C)C)SC1c1ccccc1 (configuration not stated) > 76.9 µM
Cc1cnc(NC(=O)CSc2nnc(-c3ccccc3)o2)s1 > 76.9 µM
C=CCN(c1ccc(C(=O)N2CCN(c3ccc(F)cc3)CC2)cc1)S(C)(=O)=O > 76.9 µM
Cc1[nH]c2ccccc2c1CCO > 76.9 µM
O=C(c1ccccc1)c1ccc(N2CCOCC2)c(NC(=O)c2ccco2)c1 > 76.9 µM
CC(C)C(NS(=O)(=O)c1cccc2nsnc12)C(=O)N1CCc2ccccc2C1 (configuration not stated) > 76.9 µM
COc1cc(C(=O)Nc2cccc3ncccc23)cc(OC)c1OC > 76.9 µM
CCCc1nc2oc3c(NCC4CCCO4)ncnc3c2c2c1COC(C)(C)C2 (configuration not stated) > 76.9 µM
Cc1c(NC(=O)C(C)N2CC(C)OC(C)C2)c(=O)n(-c2ccccc2)n1C (configuration not stated) > 76.9 µM
O=C(CC1CCCCC1)NC1CCCC1 > 76.9 µM
CCOc1ccc(-c2nnn(CC(=O)Nc3ccccc3OC)n2)cc1OCC > 76.9 µM
Cn1c(=O)cc(OCC(=O)NC2CCCCC2)c2ccccc21 > 76.9 µM
O=C(Nc1ncccn1)c1cccs1 > 76.9 µM
CCN(C(=O)c1cc2cccc(OC)c2oc1=O)c1ccccc1 > 76.9 µM
Cc1ccc(Cn2c(=O)c3c(nc4n3CCCN4Cc3ccccc3)n(C)c2=O)cc1 > 76.9 µM
O=C(Nc1cc(C(F)(F)F)ccc1F)C1CCC1 > 76.9 µM
CCc1nc(N(CC)CC)c2oc3ccccc3c2n1 > 76.9 µM
Cc1cc(Cl)c(S(=O)(=O)N2CC(C)OC(C)C2)cc1OCC(N)=O (configuration not stated) > 76.9 µM
C/C(=C\c1cc(C(=O)O)c(C)o1)CO > 76.9 µM
Nc1c(S(=O)(=O)c2ccccc2)nnn1-c1ccccc1 > 76.9 µM
Cc1ncsc1C(=O)Nc1nc2c(s1)CCCC2 > 76.9 µM
CCOC(=O)CN1C(=O)C2(OCCCO2)c2ccccc21 > 76.9 µM
CCN(CC)C(C(=O)Nc1ccc2c(c1)OCO2)c1ccccc1 (configuration not stated) > 76.9 µM
CCOC(=O)N1CCN(C(=O)c2ccc(N3C(=O)c4ccccc4C3=O)cc2)CC1 > 76.9 µM
Cc1cc(C)c2c(CN3CCN(C)CC3)cc(=O)oc2c1
CCOCCCNC(=O)C(NC(=O)c1ccc2c(c1)OCO2)c1ccc(OC)cc1 (configuration not stated) > 76.9 µM
O=C(NC1CCCCC1)C(c1ccccc1)N1CCOCC1 (configuration not stated) > 76.9 µM
CCCCn1c(NC(C)CC)nc2c1c(=O)[nH]c(=O)n2C (configuration not stated) > 76.9 µM
CC(=O)Nc1cccc(NC(=O)c2cc3ccccc3o2)c1 > 76.9 µM
COC(=O)c1ccc(COC(=O)c2[nH]c(C)c(C(C)=O)c2C)o1 > 76.9 µM
COc1ccccc1NC(=O)N1CCCC1C(=O)Nc1ccc(NC(C)=O)cc1 (configuration not stated) > 76.9 µM
COc1ccc(CCNc2oc(-c3ccco3)nc2C#N)cc1 > 76.9 µM
O=C(NCc1ccccn1)c1ccc(Cl)cc1Cl > 76.9 µM
S=c1[nH]nc(-c2cccc(Br)c2)o1 > 76.9 µM
OCCNCC(O)Cn1ccc2ccccc21 (configuration not stated) > 76.9 µM
O=C(CSc1ncnc2nc[nH]c12)N1CCN(c2ccccc2)CC1 > 76.9 µM
Cn1c(SCC(=O)NC2CCCCCC2)nnc1-c1cccs1 > 76.9 µM
COc1ncnc2c1oc1nc(CC(C)C)c3c(c12)CCCC3 > 76.9 µM
COCCn1c(CN2CCN(c3ccccc3)CC2)nc2c1c(=O)n(C)c(=O)n2C > 76.9 µM
CC(C)n1c(SCC(=O)NCc2ccco2)nc2c1c(=O)n(C)c(=O)n2C > 76.9 µM
CCOc1nc(S(=O)(=O)c2ccc(C)cc2)c(Cl)s1 > 76.9 µM
O=C(O)CSc1nnc(CNc2cccc(C(F)(F)F)c2)n1Cc1ccco1 > 76.9 µM
COc1ccccc1NC(=O)N(Cc1ccco1)Cc1cc2cccc(C)c2[nH]c1=O > 76.9 µM
COc1cc(C2c3c(n[nH]c3C)C(=O)N2c2ccc(C)cc2)ccc1O (configuration not stated) > 76.9 µM
O=C(CN1CCOCC1)Nc1ccc(S(=O)(=O)NC2CCCCC2)cc1 > 76.9 µM
Nn1cc(-c2ccccc2)nc1SCC(=O)NC1CCS(=O)(=O)C1 (configuration not stated) > 76.9 µM
O=C1NC(=S)S/C1=C1\Sc2ccccc2N1CCCS(=O)(=O)O > 76.9 µM
CC1(C(=O)NC2CCCCCC2)CCC(=O)N1Cc1ccc2c(c1)OCO2 (configuration not stated) > 76.9 µM
CCS(=O)(=O)CCSc1nc(C)cc(C)c1C#N > 76.9 µM
CSc1nc(N2CCOCC2)c2c(c1C#N)CCCCC2 > 76.9 µM
CN1CCN(S(=O)(=O)c2ccc(NC(=O)c3csc4ccccc34)cc2)CC1
CCSc1nc(C)c(CC)c(C)c1C(N)=O > 76.9 µM
Cc1noc(C)c1CSc1nc2[nH]ncc2c(=O)n1-c1ccccc1 > 76.9 µM
O=C1c2oc3ccc(F)cc3c(=O)c2C(c2ccccc2)N1CC1CCCO1 (configuration not stated) > 76.9 µM
O=C(CCCn1c(=O)oc2ccccc21)N1CCc2ccccc2C1 > 76.9 µM
CC(C)(C)c1cc(CN2CCOCC2)c(C(=O)O)o1 > 76.9 µM
O=C(c1ccc(Cn2c(=O)[nH]c3ccccc3c2=O)cc1)N1CCN(c2ccc(F)cc2)CC1 > 76.9 µM
CCCCN(C)S(=O)(=O)c1cc(Br)cc2c1N(C(=O)C1CC1)CC2 > 76.9 µM
CC(C)CN(C(=O)c1ccc(=O)n(C)n1)c1nc2ccccc2s1 > 76.9 µM
CCOC(=O)CC(=O)CSC1=C(C#N)C(c2ccccc2OC)CC(=O)N1 (configuration not stated) > 76.9 µM
COc1ccc(-c2noc(N(C)CC(=O)Nc3cccc(C(F)(F)F)c3)n2)cc1 > 76.9 µM
Cc1cc(NC(=O)CCC(=O)N(CC2CCCO2)C(C(=O)NC2CCCC2)c2ccccc2C)no1 (configuration not stated) > 76.9 µM
O=S1(=O)CCN=C2SC3=C(CCCC3)N21 > 76.9 µM
O=C(O)c1ccccc1NS(=O)(=O)c1ccc2c3c(cccc13)C(=O)N2 > 76.9 µM
COCCn1nnnc1C(c1ccc(OC)cc1OC)N1CCN(c2ccccc2)CC1 (configuration not stated) > 76.9 µM
O=c1c2c([nH]c3ccc(Br)cc13)CCCC2
COc1ccc(C(=O)NC2CCN(C(=O)NC3CCCCC3)CC2)cc1 > 76.9 µM
Fc1ccc(NCc2nnc(SCc3nnc(-c4ccccc4)o3)n2CC2CCCO2)cc1 (configuration not stated) > 76.9 µM
Cc1nc2ccc(S(=O)(=O)N(C)CC(=O)N3CCc4ccccc4C3)cc2s1 > 76.9 µM
Cc1cccc(-n2nnc(C(=O)N3CCc4ccccc4C3)c2N)c1 > 76.9 µM
O=C(CSc1nnc(C23CC4CC(CC(C4)C2)C3)o1)Nc1ccc(N2CCOCC2)c(Cl)c1
Cc1ccc(S(=O)(=O)Nc2cc(C)nn2-c2ccccc2)cc1 > 76.9 µM
Cc1occc1-c1nnc(SCC(=O)c2ccc(F)cc2)o1 > 76.9 µM
Cc1cc(C)nc(N2CCC(C(=O)O)CC2)n1 > 76.9 µM
O=C(Nc1ccccc1C(=O)N1CCOCC1)c1cccc(S(=O)(=O)N2CCCC2)c1 > 76.9 µM
CCCN(C(=O)CSc1nnc(-c2ccoc2C)n1N)C1CCS(=O)(=O)C1 (configuration not stated) > 76.9 µM
Cc1ccc(NC(=O)CCNS(=O)(=O)c2ccc3c(c2)oc(=O)n3C)cc1C > 76.9 µM
CCOc1ccc(-c2nc(N)nc(C)c2-c2ccc(OC)c(OC)c2)c(O)c1 > 76.9 µM
CCn1cc(C(=O)NCc2ccc3c(c2)OCO3)c(=O)c2cc(F)c(N3CCN(C)CC3)cc21 > 76.9 µM
O=C(CSc1nc2c(c(=O)n1-c1ccc(Cl)cc1)SCC2)NCC1CCCO1 (configuration not stated) > 76.9 µM
COc1cc(C(=O)OCCN2CCOCC2)ccc1O > 76.9 µM
COCCCN1C(=O)C(=O)/C(=C(/O)c2ccc(OC)cc2)C1c1cccc(OC)c1 (configuration not stated) > 76.9 µM
O=C(COc1ccc(Cl)cc1Cl)NC(=O)N1CCCCC1 > 76.9 µM
CCCn1c(SCC(=O)N2CCN(c3ccc(OC)cc3)CC2)nc2c1c(=O)n(C)c(=O)n2C > 76.9 µM
Cc1ncn(C23CC4CC(CC(O)(C4)C2)C3)n1 > 76.9 µM
CCOc1ccccc1N1CCN(Cc2cccc(OC)c2O)CC1 > 76.9 µM
C=CCN=C1SCC(=O)N1S(=O)(=O)c1ccc(C)cc1 > 76.9 µM
O=C(c1cccc(F)c1)N1CCc2ccccc2C1 > 76.9 µM
Cc1cc(C(=O)Nc2sc3c(c2C#N)CCC3)no1 > 76.9 µM
COc1ccc(N2C3=[N+](CCCC3)CC2(C)O)cc1 (configuration not stated) > 76.9 µM
